The list shows a part of the results.

Drawing on the antibiotic and cytotoxicity screens of Wong et al. (2023), this text covers growth inhibition call for 39 compounds.

This assay has as its system S. aureus RN4220. Kind of assay: growth inhibition call (relative growth <= 0.2). The following applies: 50 µM.
As for `Cc1ccc(S(=O)(=O)N(C)C[C@H]2Oc3ccc(NC(=O)CCN4CCOCC4)cc3CC(=O)N([C@@H](C)CO)C[C@H]2C)cc1`, the growth inhibition call is “inactive”.

In the case of `COc1ccc(CN(C)C[C@H]2OCCCC[C@@H](C)Oc3ccc(NS(=O)(=O)c4ccc(C)cc4)cc3C(=O)N([C@H](C)CO)C[C@@H]2C)cc1`, the growth inhibition call was “inactive”.

As to `CCCN(CCC)S(=O)(=O)c1ccc(C(=O)N(c2cccc(SC)c2)[C@H]2OC(=O)c3ccccc32)cc1`, the growth inhibition call was “inactive”.

On to `COc1ccc(S(=O)(=O)Nc2cccc3c2O[C@H](CN(C)S(=O)(=O)c2cn(C)cn2)[C@H](C)CN([C@@H](C)CO)C3=O)cc1`, for which the growth inhibition call is “inactive”.

As to `C[C@H](CO)N1C[C@H](C)[C@H](CN(C)Cc2ccc(Oc3ccccc3)cc2)Oc2c(NS(=O)(=O)c3ccc(Cl)cc3)cccc2C1=O`, the growth inhibition call is “inactive”.

On to `O=C(C[C@H]1CC[C@@H]2[C@H](COC[C@H](O)CN2Cc2cc(F)ccc2F)O1)N[C@@H]1CCN(Cc2ccccc2)C1`, for which the growth inhibition call was “inactive”.

For `C[C@@H]1CN([C@H](C)CO)C(=O)c2cc(NC(=O)Nc3ccc4c(c3)OCO4)ccc2O[C@@H](C)CCCCO[C@H]1CN(C)S(=O)(=O)c1ccccc1`, the growth inhibition call was “inactive”.

In the case of `C[C@@H]1CN([C@@H](C)CO)C(=O)c2cccc(NC(=O)c3cnccn3)c2O[C@H]1CN(C)S(C)(=O)=O`, the growth inhibition call was “inactive”.

`C[C@H]1CCCCO[C@H](CN(C)CC2CC2)[C@@H](C)CN([C@@H](C)CO)C(=O)c2cc(NC(=O)Nc3ccccc3)ccc2O1`: the growth inhibition call is “inactive”.

`Cc1noc(C)c1S(=O)(=O)Nc1ccc2c(c1)C(=O)N([C@H](C)CO)C[C@@H](C)[C@H](CN(C)Cc1ccncc1)O2`: the growth inhibition call is “inactive”.

Turning to `Cc1cc(C(=O)Nc2cccc3c2O[C@H](CN(C)C(=O)NC(C)C)[C@@H](C)CN([C@H](C)CO)C3=O)n(C)n1`, the growth inhibition call was “inactive”.

For `C[C@@H](NC(=O)N(C)C[C@H]1OCc2ccccc2-c2c(n(C)c3ccccc23)C(=O)N([C@@H](C)CO)C[C@@H]1C)c1ccccc1`, the growth inhibition call was “inactive”.

Take `C[C@@H]1CCCCO[C@@H](CN(C)Cc2ccncc2)[C@H](C)CN([C@H](C)CO)C(=O)c2cc(NC(=O)Cc3ccccc3)ccc2O1`: the growth inhibition call was “inactive”.

Turning to `C[C@@H](O[C@H]1OCCN(Cc2n[nH]nc2CN(C)C)[C@H]1c1ccc(F)cc1)c1cc(C(F)(F)F)cc(C(F)(F)F)c1`, the growth inhibition call is “active”.

Take `COc1ccc2c(c1)OCC(=Cc1ccc(OC)c(O)c1)C2=O`: the growth inhibition call was “inactive”.

As for `CC(C)NC(=O)N(C)C[C@H]1Oc2c(NS(=O)(=O)c3ccccc3)cccc2C(=O)N([C@H](C)CO)C[C@H]1C`, the growth inhibition call is “inactive”.

For `Cc1ccc(S(=O)(=O)N(C)C[C@H]2Oc3c(NC(=O)Nc4cccc5ccccc45)cccc3C(=O)N([C@H](C)CO)C[C@H]2C)cc1`, the growth inhibition call is “inactive”.

Consider `CN1C(=O)c2cc(NC(=O)Cc3cccs3)ccc2OC[C@H]2O[C@H](CC(=O)NCc3ccc(-c4ccccc4)cc3)CC[C@@H]21`, for which the growth inhibition call was “inactive”.

As for `CO[C@@H]1[C@H](N(C)C(=O)c2ccccc2)C[C@H]2O[C@]1(C)n1c3ccccc3c3c4c(c5c6ccccc6n2c5c31)C(=O)NC4`, the growth inhibition call was “inactive”.

Consider `Cc1noc(C)c1S(=O)(=O)N(C)C[C@@H]1Oc2c(NS(=O)(=O)c3cn(C)cn3)cccc2C(=O)N([C@H](C)CO)C[C@@H]1C`, for which the growth inhibition call is “inactive”.

Regarding `C[C@@H]1CCCCO[C@H](CN(C)C(=O)Nc2ccccc2)[C@H](C)CN([C@@H](C)CO)C(=O)c2cc(NC(=O)Cc3ccccc3)ccc2O1`, the growth inhibition call was “inactive”.

For `C[C@@H]1CCCCO[C@H](CN(C)S(C)(=O)=O)[C@@H](C)CN([C@H](C)CO)C(=O)c2cc(NC(=O)Nc3cccc4ccccc34)ccc2O1`, the growth inhibition call was “inactive”.

`C[C@@H]1CN([C@H](C)CO)S(=O)(=O)c2ccc(C#CCN(C)C)cc2O[C@H]1CN(C)C`: the growth inhibition call was “inactive”.

Consider `C[C@@H]1CCCCO[C@@H](CN(C)C(=O)Nc2ccccc2)[C@H](C)CN([C@@H](C)CO)C(=O)c2cc(NC(=O)Nc3ccc(C(F)(F)F)cc3)ccc2O1`, for which the growth inhibition call is “inactive”.

Turning to `O=C(C[C@@H]1CC[C@@H]2[C@H](COC[C@H](O)CN2C(=O)c2ccccc2)O1)N1CCOCC1`, the growth inhibition call was “inactive”.

As for `C[C@H]1CN([C@@H](C)CO)C(=O)Cc2cc(NC(=O)c3ccncc3)ccc2O[C@H]1CN(C)S(=O)(=O)c1ccccc1`, the growth inhibition call is “inactive”.

Take `COc1ccc(C#Cc2cnc3c(c2)C(=O)N([C@@H](C)CO)C[C@@H](C)[C@@H](CN(C)C(=O)CC2CC2)O3)cc1`: the growth inhibition call is “inactive”.

In the case of `C[C@@H]1CN([C@H](C)CO)C(=O)c2cc(NC(=O)NC3CCCCC3)ccc2O[C@@H](C)CCCCO[C@H]1CN(C)Cc1ccncc1`, the growth inhibition call is “inactive”.

`C[C@@H]1CN([C@@H](C)CO)C(=O)c2cccc(NC(=O)c3nc4ccccc4s3)c2O[C@H]1CN(C)Cc1ccc(C(F)(F)F)cc1`: the growth inhibition call is “inactive”.

`NCCCCCCNC(=O)[C@H]1C[C@H]2C(=O)N[C@@H](Cc3ccccc3)C(=O)N2[C@H]1c1cccc(OCCO)c1`: the growth inhibition call is “inactive”.

For `COc1ccc(CN(C)C[C@H]2Oc3ccc(NS(=O)(=O)c4c(C)noc4C)cc3C(=O)N([C@H](C)CO)C[C@H]2C)cc1`, the growth inhibition call was “inactive”.

With `Cc1noc(C)c1NC(=O)Nc1ccc2c(c1)C(=O)N([C@H](C)CO)C[C@@H](C)[C@H](CN(C)C(=O)Nc1cccc3ccccc13)O2`, the growth inhibition call was “inactive”.

Take `COc1ccc(CCc2nc3cc(-c4c(C)noc4C)ccc3n2C[C@H](C)N2CCOCC2)cc1Cl`: the growth inhibition call was “inactive”.

Consider `c1ccc(Cn2c(-c3ccc(OC[C@H](C4CCNCC4)n4c(-c5ccccc5)nc5ccccc54)cc3)nc3ccccc32)cc1`, for which the growth inhibition call is “inactive”.

As to `O=C(CN1CCOCC1)N[C@H]1CC[C@H](CCn2cc(C3CC3)nn2)O[C@@H]1CO`, the growth inhibition call is “inactive”.

As for `C[C@@H]1CCCCO[C@H](CN(C)C(=O)c2ccccc2)[C@H](C)CN([C@@H](C)CO)C(=O)c2cc(NC(=O)Nc3ccccc3)ccc2O1`, the growth inhibition call is “inactive”.

Regarding `C[C@@H]1CCCCO[C@H](CN(C)C(=O)Cc2ccccc2)[C@@H](C)CN([C@@H](C)CO)C(=O)c2cc(NC(=O)Nc3ccc(C(F)(F)F)cc3)ccc2O1`, the growth inhibition call was “inactive”.

Take `NNCCc1ccccc1.O=S(=O)(O)O`: the growth inhibition call was “inactive”.

Consider `C[C@@H]1CN([C@@H](C)CO)C(=O)c2cc(NS(=O)(=O)c3cccs3)ccc2O[C@@H]1CN(C)S(=O)(=O)c1cccs1`, for which the growth inhibition call is “inactive”.
